Where a chain is given by its changes, count along the chain named.
B1: PGZL1_gVgDgJ Fab (Fab, V domains shown)
VH: QVQLVQSGAEVKKPGSSVKVSCKASGGTFSSYAISWVRQAPGQGLEWMGGIIPIFGTANYAQKFQGRVTITADKSTSTAYMELSSLRSEDTAVYYCAREGEGWFGEPLRAFDVWGQGTVITVSS
VL: [about 100 residues left out]STFGQGTRLEIKR
B2: PGZL1_gVgDmJ Fab (Fab, V domains shown)
VH: B1 VH with D112E, V113F
VL: [about 100 residues left out]STFGQGTRLEIKR

Molecular target: MPER peptide PDT-081 (HIV-1)
Assay: BLI (Octet RED96), Fab over biotinylated peptide on streptavidin sensors

Row | Binder | Kd [nM]
1 | B1 | 938
2 | B2 | 148
